Here are results for 41 variants from the RNAGym collection of RNA variant scans (doi:10.7554/elife.90254).

Read counts are not given, so values of variants with three or more changes are uncertain.

The labels stand for the following.
B1: OR4K15 (parent)
chain: GUUAACGGUCAUAGGCCAUGGAAACUAGGAGCACCAUUUCGCUGCCAGUGAAGAAAUGAACAAAGAAAAUCUGGGCCAGGCAGGCAUCAAAAGAAAUAGUCUUGCGCUCAACCAGAAAGUCUGUAAUCAUUUUAAGGGUA

Variants of B1 are the subject of this data set. The experiment in a line: self-cleavage, relative activity (ratio to wild type); higher = more cleavage; in vitro, sequencing; the parent is a self-cleaving ribozyme.
Turning to GUUAACGGUCAUAGGCCAUGGAAACUGGGAGCACCAUUUCGCUGCCAGUGAAGAAAUGAACGAAGAAAAUCUGGGCCAGGCAGGCAUCAAAAGAAAUAGUCUUGCGCUCAACCAGAAAGUCUGUAAUCAUUUUAGGGGUA, the self-cleavage was determined as 0.85.

For GUUAACGGUCAUAGGCCAUGGAAACUGGGAGCACCAUCUCGCUGCCAGUGAAGAAAUGAGCAAAGAAAAUCUGGGCCAGGCAGGCAUCAAGAGAAAUAGUCUUGCGCUCAACCAGAAAGUCUGUAAUCAUUUUAAGGGUA, the self-cleavage amounted to 0.55.

As for GUUAACGGUCAUAGGCCAUGGAAACUGGGAGCACCAUUUCGCUGCCAGUGAAGAAAUGAACAAAGAAAAUCUGGGCCAGGCUGGCAUCAAAGGAAAUAGUCUUGCGCUCAACCAGAAAGUCUGUAAUCAUUUUAAGGGUA, the self-cleavage was 0.26. As for GUUAACGGUCAUAGGCCAUGGAAACUGGGAGCACCACUCCGCUGCCAGUGAAGAAAUGAACAAAGAAAAUCUGGGCCUGGCAGGCAUCAAAAGAAAUAGUCUUGCGCUCAACCAGAAAGUCUGUAAUCAUUUUAAGGGUA, the self-cleavage is 0.23.

Consider GUUAACGGUCAUAGGCCAUGGAAACUGGGAGCAUCAUUUCGCUGCCAGUGAAGGAAUGAACAAAGAAAAUCUGGGCCAGGCAGGCAUCAAAAGAAAUAGUCUUGCGCUCAACCAGAAAGUCUGUAAUCAUUUUAAGGGUA, for which the self-cleavage came out at 0.58. Consider GUUAACGGUCAUAGGCCAUGGAAACUGGGAGCACCAUUUCGCUGCCAGUGAAGAAAUGAACAAAGGAAAUCUGGGCCAGGCAGGCAUCAAAAGAAAUAGUCUUGCGCUCAGCCAGAAAGUCUGUAAUCAUUUUAAGGGUA, for which the self-cleavage was 0.05.

Consider GUUAACGGUCAUAGGCCAUGGAAACUGGGAGCACCAUUCCGCUGCCAGUGAAGAAAUGAACAAAGAAAACCUGGGCCAGGCAGGCAUCAAGAGAAAUAGUCUUGCGCUCUGCCAGAAAGUCUGUAAUCAUUUUAAGGGUA, for which the self-cleavage was found to be 0.03.

Regarding GUUAACGGUCAUAGGCCAUGGAAACUGGGAGCACCAUUUCGCUGCCAGUGAAGAAAUGAACAAAGAGAAUCUGGGCCAGGCAGGCAUCAAAAGAAAUAGUCUUGCGCUCAACCAGAAAGUCUGUAACCAUUUUAAGGGUA, the self-cleavage worked out at 0.85.

Take GUUAACGGUCAUAGGCCAUGGAAACUGGGAGCACCAUUUCGCUGCCAGUGAAGAAAUGAACGAAGAAGAUCUGGGCCAGGCAGGCAUCAAAGGAAAUAGUCUUGCGCUCAACCAGAAAGUCUGUAAUCAUUUUAAGGGUA: the self-cleavage was determined as 0.67. For the variant GUUAACGGUCAUAGGCCAUGGAAACUGGGAGCACCAUUCCGCUGCCAGUGAAGAAAUGAACAAAGAAAAUCUGGGCCAGGCAGGCGUCAAAAGAACUAGUCUUGCGCUCAACCAGAAACUCUGUAAUCAUUUUAAGGGUA, the self-cleavage was determined as 0.12.

In the case of GUUAACGGUCAUAGGCCAUGGAAACUGGGAGCACCAUUUCGCUGCCAGUGAAGAAAUGAACAAAGAAAAUCUGGGCCAGGCAGGCAUAAAAAGAAAUAGUCUUGCGCUCAACCAGAAAAUCUGUAAUCAUUUUAAGGGUA, the self-cleavage worked out at 1.95. GUUAACGGUCAUAGGCCAUGGAAACUGGGAGCACCAUUUCGCUGCCAGUGAAGAAAUGAGCAAAGAAAAUCUGGGCCAGGCAGGCAUUAAAAGAAAUAGUCUUGCGCUCAACCAGAAAGUCUGUAAUCAUUUUAAGGGUA: the self-cleavage is 1.44.

In the case of GUUAACGGUCAUAGGCCAUGGAAACUGGGAGCACCAUUUCGCUGCCAGUGAAGAAAUGAACAAAGAAAAUCUGGGCCAGGCAGGCAUCCAAAGGAAUAGUCUCGCGCUCAACCAGGAAGUCUGUAAUCAUUUUAAGGGUA, the self-cleavage worked out at 0.17.

Consider GUUAACGGUCAUAGGCCAUGGAAACUGGGAGCACCAUUUCGCUGCCAGUGAAGAAAUGAACAAAGAGAAUCUGGGCCAGGCAGGCAUCAAAAGAGAUAGUCUUGCGCUCAUCCAGAAAGUCUGUAAUCAUUUUAAGGGUA, for which the self-cleavage was 0.13. For GUUAACGGUCAUAGGCCAUGGAAACUGGGAGCACCAUUUCGCUGCCAGUGAAGAAAUGAACAAUGAAGAUCUGGGCCAGGCAGGCAACAAAAGAAAUAGUCUUGCGCUCAACCAGAAAGUCUGUAAUCAUUUUAAGGGUA, the self-cleavage worked out at 0.79. Turning to GUUAACGGUCAUAGGCCAUGGAAACUGGGAGCACCAUUUCGCUGCCAGUGAAGAAAUGAACAAAGAAAAUCUGGGCCAGGCAGGCAUCAAAAGAAAUAGUCUUGCGCUCAACCUGAAAGUCCGUAAUCAUUUUAAGGGUA, the self-cleavage came to 0.03. For the variant GUUAACGGUCAUAGGCCAUGGAAACUGGGAGCACCAUUCCGCUGCUAGUGUAGUAAUGAACAAAGAAAAUCUGGGCCAGGCAGGCAUCAAAAGAAAUAGUCUUGCGCUCAACCAGAAAGUCUGUAAUCAUUUUAAGGGUA, the self-cleavage was found to be 1.53. For GUUAACGGUCAUAGGCCAUGGAAACUGGGAGCACCAUUUCGCUGCCAGUGAAGAAAUGAACAAAGAAAAUCUGGGCCAGGCAGGCAUCAAAAGAAAUAGUCUUGCGCUCAACCGGAAAGUCUGCAAUCAUUUUAAGGGUA, the self-cleavage came out at 0.24.

As to GUUAACGGUCAUAGGCCAUGGAAACUGGGAGCACCAUUUCGCUGCCAGUGAAGAAAUGAACAAGGAAAAUCUGGGCCAGGCAGGCAUCAAGAGAAAUAGUCUUGCGCACGACCAGAAAGUCUGUAAUCAUUUUAAGGGUA, the self-cleavage stood at 0.01. Take GUUAACGGUCAUAGGCCAUGGAAACUGGGAGCACCAUUUCGCUGCCAGUGAAGAAAUGAACAAAGGAAAUCUGGGCCAGGCAGGCAUCAAAAGAAAUAGUCUUGCGCUCAACCAGAAAGUCCGUAAUCAUUUUAAGGGUA: the self-cleavage stood at 1.29. For GUUAACGGUCAUAGGCCAUGGAAACUGGAAGCACCAUUUCGCUGCCAGUGAAGAAAUGAACGAAGAAAGUCUGGGCCAGGCAGGCAUCAAAAGAAAUAGUCUUGCGCUCAACCAGAAAGUCUGUAAUCAUUUUAAGGGUA, the self-cleavage came out at 1.34. GUUAACGGUCAUAGGCCAUGGAAACUGGGAGCACCACUUCGCUGCCAGUGAAGAAAUGAACAAAGAAAAUCUGGGCCAGGCAGGCAUCAAAAGAGAUAGUCUUGCGCUCAACCAGAAAGUCUGUAAUCAUUUUAAGGGUA: the self-cleavage came to 1.35. Regarding GUUAACGGUCAUAGGCCAUGGAAACUGGGAGCACCAUUUCGCUGCCAGUGAAGAAAUGAACAAAGAAAAUCUGGGCCUGGCAGGCAUCAAAGGAAACAGUCUUGCGCUCAACCAGAAAGUCUGUAAUCAUUUUAAGGGUA, the self-cleavage is 0.28.

As to GUUAACGGUCAUAGGCCAUGGAAACUGGGAGCACCAUUUCGCUGCCAGUGAAGAAAUGAACAAAGAAAAUCUGGGCCAGGCAGGCAUCAAUAGAAAUAGUCUUGGGCUCAACCAGAAAGUCCGUAAUCAUUCCAAGGGUA, the self-cleavage came to 0. For the variant GUUAACGGUCAUAGGCCAUGGAAACUGGGAGCACCAUUUCGCUGCCAGUGAAGAAAUGAGCAAAGAAAAUCCGGGCCAGGCUGGCAUCAAAAGAAAUAGUCUUGCGCUCAACCAGAAAGUCUGUAAUCAUUUUAAGGGUA, the self-cleavage worked out at 0.23. Under GUUAACGGUCAUAGGCCAUGGAAACUGGGAGCACCAUUUCGCUGCCAGUGAAGAAAUGAACAUAGAAAAUCUGGGCCAGGCAGGCAUCAAAAGAAAUAGCCUUGCGCUCAACCAGAAAGUCUGUAAUCAUUUUAAGGGUA stands 0.76; under GUUAACGGUCAUAGGCCAUGGAAACUGGGAGCACCAUCUCGCUGCCAGUGAUGAAAUGAACAAAGAAAACCUGGGCCAGGCAGGCAUCAAAAGAAAUAGUCUUGCGCUCAACCAGAAAGUCUGUAAUCAUUUUAAGGGUA, 0.61; under GUUAACGGUCAUAGGCCAUGGAAACUGGGAGCACCAUUCCGCUGCCAGUGAAGAAAUGUACAAUGAAAAUCUGGGACGGGCAGGCAUCAAAAGAAAUAGUCUUGCGCUCAGCCAGAAAGUCUGUAAUCAUUUUAAGGGUA, 0.08. Take GUUAACGGUCAUAGGCCAUGGAAACUGGGAGCACCAUUCCGCUGCCUGUGAAGAAAUGAACAAAGAAAAUCUGGGCCAGGCAGGCAUCAAAAGAAAUAGUCUUGCGCUCAACCAGAAAGUCUGUAACCAUUUUAAGGGUA: the self-cleavage is 0.1.

GUUAACGGUCAUAGGCCAUGGAAACUGGGAGCACCAUCUCGCUGCCAGUGAAGAAAUGAACAAAGAAAAUCUGGGCCAGGCAGGCAUCAAAAGAAAUAGUCUUGCGCUCAACCAGAAAGUCUGUAGUCAUUUUAAGGGUA: the self-cleavage amounted to 1.04. For GUUAACGGUCAUAGGCCAUGGAAACUGGGAGCACCAUUUCGCUGCCAGUGAAGAAAUGAACAAAGAAAAUCUGGGCCAGGCAGGCAUCAAGAGAAAUAGUCUUGCGCUCAACCAGAGAGUCUGUAAUCAUUUUAAGGGUA, the self-cleavage came to 0.62. For the variant GUUAACGGUCAUAGGCCAUGGAAACUGGGAGCACUAUUUCGCUGCCAGUGAAGAGAUGAACAAGGAAAAUCUGGGCCAGGCAGGCAUCAAAAGGAAUAGUCUUGCGCUCAACCAGAAAGUCUGUAAUCAUUUUAAGGGUA, the self-cleavage turned out to be 0.73.

GUUAACGGUCAUAGGCCAUGGAAACUGGGAGCACCAUUUCGCUGCCAGUGAAGAAAUGAACAAAGAAAAUCUGGGCCGGGCAGGCAUCAAAAGAAAUAGUCUUGCGCUCAACCAGAAAGUCUGUAAUCGUUUUAAGGGUA: the self-cleavage stood at 0.06. The figure for GUUAACGGUCAUAGGCCAUGGAAACUGGGAGCACCAUUUCGCUGCCAGUGAAGAAAUGAACAAAGAAAAUCUGGGCCAGGCAGGCAUCUAAAGAAAUAGUCUUGCGCUCAACCAGAAAGUCCGUAAUCAUUUUAAGGGUA is 1.34. On to GUUAACGGUCAUAGGCCAUGGAAACUGGGAGCACCAUUUCGCUGCCAGUGAAGAAAUGAACAAAGAAAAUCUGGGCCAGGCAGGCAUCAAAAGGAAUAGCCUUGCGCUCAACCAGAGAGUCUGUAAUCAUUUUAAGGGUA, for which the self-cleavage was 2.07. With GUUAACGGUCAUAGGCCAUGGAAACUGGGAGCACCAUUUCGCUGCCAGUGAAGAAAUGAACAAAGAAAAUCUGGGCCAGGCAGGCAUCAAAAGAAAUAGUCUUGCGCUCAACCAGGAAGUCUGUAAUCAGUUUGAGGGUA, the self-cleavage was 0.41.

Take GUUAACGGUCAUAGGCCAUGGAAACUGGGAGCACCAUUUCGCUGCCAGUGAAGAAAUGAACAAAGAAAAUCUGGGCCAGGCUGGCAUCAAAAGAAAUAGUCUUGCGCUCAACCAGUAAGUCUGUAAUCAUUUUAAGGGUA: the self-cleavage worked out at 0.09.

On to GUUAACGGUCAUAGGCCAUGGAAACUGGGAGCACCACUUCGCUGCCAGUGAAGAAAUGAACAAAGAAAAUCUGGGCCAGGCAGGCAUCAAAAGAAAUAGUCUUGCGCUCAACCAAAAAGUCUGUAAUCAUUUUAAGGGUA, for which the self-cleavage came to 0.31.

In the case of GUUAACGGUCAUAGGCCAUGGAAACUGGGAGCACCAUUUCGCAGCCAGUGAAGAAAUGAACAAAGAAAAUCUGGGCCAGGCAGGCAUCAAAAGAAAUAGUCUUGCGCUCAACCAGAAAGUCUGUAUUCAUUUUAAGGGUA, the self-cleavage was 1.41.

On to GUUAACGGUCAUAGGCCAUGGAAACUGGGAGCACCAUUUUGCUGCCAGUGAAGAAAUGAACAAAGGGAAUCUGGGCCAGGCAGGCAUCAAAAGAAAUAGUCUUGCGCUCAACCAGAAAGUCUGUAAUCAUUUUAAGGGUA, for which the self-cleavage amounted to 0.62. With GUUAACGGUCAUAGGCCAUGGAAACUGGGAGCACCAUUUCGCUGCCAGUGAAGAAAUGAACAAAGAGAAUCUGGGCCAGGCAGGCAUCAAAAGAAAUAGUCUUGCGCUCAACCAGAAGGUCUGUAAUCAUUUUAAGGGUA, the self-cleavage came to 0.67.
